# In PMC12136788:
# This is one part of the list.
# B1: chr1:206732925:206733026:+|3pUTR|ENSG00000162889|msi1|FALSE|unique (ssRNA)
# RNA: GGGAGUUCUACAGUCCGACGAUCAAGUGAGCAAGGUGCUCUUGAACCUGUGCUCAUUUUGCAAUUUUAUCAGUAAUUUGACUUAGAGUUUUUACGAAACCUCUUUUGUUGUCCUUGCCCCACUCCUCUCCACCAGACGCCUUCCAACAGAGGAUUGAGCAUCA
# B2: chr12:10081268:10081413:-|three_prime_utr|ENSG00000150048|control|control|control (ssRNA)
# RNA: GGGAGUUCUACAGUCCGACGAUCUCAGUACUACCAGCUCUCCAAUACUGGUCAAGACACCAUUUCUCAAAUGGAAGAAAGAUUAGGAAAUACGUCCCAAGAGUUGCAAUCUCUUCAAGUCCAGAAUAUAAAGCUUGCAGGAAGCAACAGAGGAUUGAGCAUCA
# B3: chr15:39595431:39595532:+|3pUTR|ENSG00000137801|msi1_unk|total|mutant (ssRNA)
# RNA: GGGAGUUCUACAGUCCGACGAUCCCCCAGGAUCACUUCUCCUUGGCUUCCUUCUUUUCUGUGCUUGCAUCAGUGUGGACUCCCCGAACGUGCGACCUGCCUCAAGAAAAUGCAGUUUUCAAAAACAGACUCAGCAUUCAGCCUCAACAGAGGAUUGAGCAUCA
# B4: chr4:138169334:138169435:-|3pUTR|ENSG00000151012|msi1|FALSE|unique (ssRNA)
# RNA: GGGAGUUCUACAGUCCGACGAUCCCAUUUCACGCAGAAAAAAAGUCAGCCAGUAAUUAAGAAAAAAAGUGAUGGAGAUUAAGUAGUAUUUUGGCUUAUUUUUAGGACUCAUCAUGAGAAGACACAGUUCCUUUAAUCAGGAAACAACAGAGGAUUGAGCAUCA
# B5: chrX:150470157:150470258:+|CDS|ENSG00000013619|unk|FALSE|unique (ssRNA)
# RNA: GGGAGUUCUACAGUCCGACGAUCUCCAAAUGAGCUAGAUCUUGAGAAGAUACUGGGGACGAAGCCAGAAGAGCCACUGGUUUUAGAUCAUCCCCAGGCAACCCUAAGCACAACUCCCAAGCCUUCGGUUCAGAUGUCACACUUCAACAGAGGAUUGAGCAUCA
# B6: chr1:42696720:42696786:+|CDS|ENSG00000065978|msi1_unk|total|mutant (ssRNA)
# RNA: GGGAGUUCUACAGUCCGACGAUCCCAGUUCAAGGCAGUAAAUAUGCAGCAGACCGUAACCAUUACCGACGCUAUCCACGUCGCCGGGGUCCUCCACGCAAUUACCAGCAAAAUUACCAGAACCGUGAGAGUGGGGAAAAGAACCAACAGAGGAUUGAGCAUCA
# B7: ENSG00000130818:stop:overlap|stop_codon|ENSG00000130818|stop_codon|NA|stop_codon (ssRNA)
# RNA: GGGAGUUCUACAGUCCGACGAUCAGCAAUGCGGGAAAGCUUACAGUCAUCCCCGUUCACUUCGAAGACAUGAACAAAUUCACUAGUGAGAAACUGUCCAUGUAAUAAAUGUGGGAAAGCUCUCAUUUGUUCCAGUUCACUUUACAACAGAGGAUUGAGCAUCA
# B8: ENSG00000070961:be:win_3201|CDS|ENSG00000070961|bound_else_gene|NA|bound_elsewhere_windowed (ssRNA)
# RNA: GGGAGUUCUACAGUCCGACGAUCAUUCCUCAAAGAAGCUGGUCAUGGAACACAAAAGGAAGAAAUACCUGAGGAGGAAUUAGCAGAGGAUGUUGAAGAGAUUGAUCACGCUGAAAGGGAGUUGCGGCGUGGCCAAAUCUUGUGCAACAGAGGAUUGAGCAUCA
# B9: chr5:96760809:96763199:-|three_prime_utr|ENSG00000164307|control|control|control (ssRNA)
# RNA: GGGAGUUCUACAGUCCGACGAUCAGAAUCUCAGACUACAGCACUAAAUAUGCUUUGAUGCUACAUCAAACGGAAUGGAAGCAUAGCUGACUUCGCUAAAGUUACUUCAUCUCCAUCUAGCAAAUGAGGCACUGUUCUCAACCACAACAGAGGAUUGAGCAUCA
# B10: chr4:140550230:140550341:+|CDS|ENSG00000179387|unk|FALSE|unique (ssRNA)
# RNA: GGGAGUUCUACAGUCCGACGAUCGAAUUUGACAAGUUUUGGUUUGAAGAAGAACCAGAAAGCAUUAUGUAUUUCAAUUUGUAUAGAGAGAAGUUUCAUGAAAAGAUUAAAGGACUUUUACUGGAUUGUAAUGUAGCACUUACUCAACAGAGGAUUGAGCAUCA
# B11: chr1:64832709:64832810:+|3pUTR|ENSG00000162437|msi1|FALSE|bound_elsewhere (ssRNA)
# RNA: GGGAGUUCUACAGUCCGACGAUCACAGCUAGAAAGUUUAAGGUAAUUUCUAAGUAUACUACCUAUAAGUAACUGAUAAGAAUUAGGCAUCAUUCAGUGAUAUAGCAGAUGACUAAUGGGUUUUUCAGGCCCUGCACUUCUCUUCAACAGAGGAUUGAGCAUCA
# B12: chr15:65327126:65328908:-|three_prime_utr|ENSG00000174498|control|control|control (ssRNA)
# RNA: GGGAGUUCUACAGUCCGACGAUCUGAACUAACAUUUUUCUUUAAAAAGCAAAACUUAAAAAAAAAAAAAAAGAGGAGAGAGAUAGAGGAAGGUGAAUUAGACUCCAAAAGAUGACCCUGCUGUAGCUGGGCCCUGACACUGUCCAACAGAGGAUUGAGCAUCA
# B13: chr4:174259701:174259819:-|CDS|ENSG00000164117|unk|FALSE|unique (ssRNA)
# RNA: GGGAGUUCUACAGUCCGACGAUCAAAUCCACUUGGGGUCACUGUUCCAUAUACAAUAAGAACCCACCUUUAGGAUUUUCUUUUAGAAAAUUGUAUAUGCAGCUGGAUGAAGGCAGCCUCACCUUUAAUGCCAACCCAGAUGAGCAACAGAGGAUUGAGCAUCA
# B14: chr3:11557161:11557262:-|3pUTR|ENSG00000144560|msi1|total|mutant (ssRNA)
# RNA: GGGAGUUCUACAGUCCGACGAUCCCUCUGACUUUAUACUGUUAUUACUGCAUUUAUUAUUUGCUAUAUUAACCGCUACUAACCCGAAAUCCGAUGAAGCAAGCAUGACAGACACAGCUGUGGAGGUCACAGCUGCUCCUUUUUCAACAGAGGAUUGAGCAUCA
# Molecular target: MSI1 full-length (mouse, UniProt Q61474 1-362)
# Sequence of UniProt Q61474 (Q61474 whole entry): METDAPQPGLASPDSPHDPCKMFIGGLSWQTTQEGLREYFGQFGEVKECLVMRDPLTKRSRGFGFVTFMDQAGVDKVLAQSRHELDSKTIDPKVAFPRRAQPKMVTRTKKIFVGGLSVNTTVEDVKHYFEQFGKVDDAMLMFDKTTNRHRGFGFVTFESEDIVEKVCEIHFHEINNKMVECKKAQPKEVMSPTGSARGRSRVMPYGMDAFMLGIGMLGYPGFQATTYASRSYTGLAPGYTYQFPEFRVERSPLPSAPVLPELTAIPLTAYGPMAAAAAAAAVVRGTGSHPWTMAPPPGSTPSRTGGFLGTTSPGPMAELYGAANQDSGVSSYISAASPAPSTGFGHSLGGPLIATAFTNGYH
# Assay: nsRBNS (natural sequence RNA bind-n-seq); RBNS binding buffer (assumed for nsRBNS): 25 mM Tris pH 7.5, 150 mM KCl, 3 mM MgCl2, 0.01% Triton X-100, 500 ug/ml BSA, 20 U/ml SUPERase-In, 4 C; UNK is unkempt and MSI1 is Musashi-1; names of the RNAs are library labels; protein concentration not given here; high values mean tight binding
row,Binder,binding signal [enrichment R]
1,B1,0.415
2,B2,0.335
3,B3,0.46
4,B4,19.3
5,B5,0.493
6,B6,0.428
7,B7,2.07
8,B8,0.445
9,B9,0.299
10,B10,1.57
11,B11,6.13
12,B12,1.12
13,B13,0.631
14,B14,0.732
